The list shows a part of the results, in another mix than the full data. The list includes weakly bound sequences.
Target: T1, GST-Aq-NF-kB (UniProt A9Y5G7)
T1 sequence: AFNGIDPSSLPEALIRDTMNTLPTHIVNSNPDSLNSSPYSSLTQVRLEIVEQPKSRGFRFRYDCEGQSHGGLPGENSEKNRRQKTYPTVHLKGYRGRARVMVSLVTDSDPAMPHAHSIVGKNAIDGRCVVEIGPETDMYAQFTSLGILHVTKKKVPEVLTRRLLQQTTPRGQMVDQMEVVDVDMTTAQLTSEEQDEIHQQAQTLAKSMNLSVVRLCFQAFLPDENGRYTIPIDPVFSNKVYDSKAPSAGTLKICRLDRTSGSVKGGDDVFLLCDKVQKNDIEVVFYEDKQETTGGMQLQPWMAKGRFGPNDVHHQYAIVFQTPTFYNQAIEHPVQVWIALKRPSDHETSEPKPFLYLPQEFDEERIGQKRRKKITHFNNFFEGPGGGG
Assay: protein-binding microarray (PBM)
Conditions: PBM: ~300 nM protein, 6 mM HEPES pH 7.8, 80 mM KCl, 0.5 mM EDTA, 0.5 mM EGTA, 6% glycerol, 35 ng/ul poly-dIdC, 1% milk, 1 h, room temperature; Ap Aiptasia and Nv Nematostella (sea anemones) / Co Capsaspora / Aq Amphimedon (sponge) / Dm Drosophila / Hu human; RHD is the Rel homology domain; high values mean tight binding; most listed sequences are background and not binding sites; double strand, one strand shown

Sequence	binding signal [z-score]
CCGATTAACATCATCTGTGAGCCTGATGTTAATCGGGTCTTGATTCGCTTGACGCTGCTG	-0.598
CCGATTAACATCATCTTTTTACTTGATGTTAATCGGGTCTTGATTCGCTTGACGCTGCTG	-0.0105
CCGATTAACATCACTGGTTGCTATGATGTTAATCGGGTCTTGATTCGCTTGACGCTGCTG	-0.293

From publication PMC5700166
